Experimental data taken from publication PMC2974439 (Biochemistry, 2010).

Biological target: T1, EntF-H6 (E. coli, UniProt P11454 1-1293)
T1 sequence (looked up): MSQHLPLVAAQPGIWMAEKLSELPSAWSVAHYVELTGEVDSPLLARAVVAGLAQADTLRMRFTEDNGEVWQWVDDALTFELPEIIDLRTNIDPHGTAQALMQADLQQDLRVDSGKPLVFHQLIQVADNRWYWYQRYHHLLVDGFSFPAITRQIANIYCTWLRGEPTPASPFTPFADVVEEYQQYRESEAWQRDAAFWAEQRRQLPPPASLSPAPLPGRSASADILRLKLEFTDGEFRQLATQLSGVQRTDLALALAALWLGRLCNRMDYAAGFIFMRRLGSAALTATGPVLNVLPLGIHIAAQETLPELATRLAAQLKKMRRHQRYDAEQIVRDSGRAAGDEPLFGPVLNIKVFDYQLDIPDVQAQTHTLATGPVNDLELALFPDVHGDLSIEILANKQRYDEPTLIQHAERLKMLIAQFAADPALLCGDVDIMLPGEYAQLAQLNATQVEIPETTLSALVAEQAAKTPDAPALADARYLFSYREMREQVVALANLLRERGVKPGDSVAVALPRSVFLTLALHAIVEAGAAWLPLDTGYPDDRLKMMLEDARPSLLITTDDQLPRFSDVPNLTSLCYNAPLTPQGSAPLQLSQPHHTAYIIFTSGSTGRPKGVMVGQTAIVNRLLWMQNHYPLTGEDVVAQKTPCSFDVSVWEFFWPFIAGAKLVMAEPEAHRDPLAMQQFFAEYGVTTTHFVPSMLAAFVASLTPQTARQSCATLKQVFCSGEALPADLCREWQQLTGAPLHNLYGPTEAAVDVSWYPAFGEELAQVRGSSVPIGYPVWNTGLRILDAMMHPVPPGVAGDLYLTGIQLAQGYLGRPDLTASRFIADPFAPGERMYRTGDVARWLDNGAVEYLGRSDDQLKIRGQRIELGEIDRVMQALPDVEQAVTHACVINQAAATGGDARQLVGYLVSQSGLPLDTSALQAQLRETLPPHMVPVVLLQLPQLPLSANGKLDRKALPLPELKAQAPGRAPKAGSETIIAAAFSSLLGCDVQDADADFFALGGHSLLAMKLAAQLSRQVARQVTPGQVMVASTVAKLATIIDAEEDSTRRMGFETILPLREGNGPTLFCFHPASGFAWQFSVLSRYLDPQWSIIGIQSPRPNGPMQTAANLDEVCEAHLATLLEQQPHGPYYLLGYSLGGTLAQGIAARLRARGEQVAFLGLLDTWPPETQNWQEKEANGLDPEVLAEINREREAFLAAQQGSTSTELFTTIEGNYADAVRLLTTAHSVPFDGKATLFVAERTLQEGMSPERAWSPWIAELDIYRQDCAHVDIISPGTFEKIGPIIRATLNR
Experiment: co-purification after co-expression

B1: YbdZ (natural protein, E. coli, UniProt P18393 1-72, looked up)
chain: MAFSNPFDDPQGAFYILRNAQGQFSLWPQQCVLPAGWDIVCQPQSQASCQQWLEAHWRTLTPTNFTQLQEAQ
stoichiometry N: 0.6 mol YbdZ per mol EntF
